Consider 68 variants from the RNAGym collection of RNA variant scans (doi:10.1093/nar/gkz1192).

Read counts are not given, so values of variants with three or more changes are uncertain.

B1: CPEB3 Ribozyme (parent)
chain: UAACAGGGGGCCACAGCAGAAGCGUUCACGUCGCAGCCCCUGUCAGAUUCUGGUGAAUCUGCGAAUUCUGCUGUAUAUCUC

The variants in this series derive from B1. Put plainly: self-cleavage, relative activity (ratio to wild type); higher = more cleavage; in vitro, sequencing. A digest of the protocol:
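Relative activity compares each variant's cleaved/total read fraction with that of the unmutated ribozyme. To get these fractions, barcoded CPEB3 ribozyme libraries from rounds of error-prone PCR were transcribed with T7 RNA polymerase for 5 hours at 37°C and then given 15 min of DNase I treatment before EDTA was added. The RNAs were reverse transcribed with template switching and sequenced on Illumina, and DNA sequencing linked barcodes to variants. A minimum of 5 reads applied, and three batches were averaged.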
UAACAAGGGGCCACAGCAGAAGCGUUCACGUCGCAGCCCCUGUCAGAUUCAGGGGAAUCUGCGAAUUCUGCUGUAUAUCAC: the self-cleavage was 0.06.
To UAACAAGGGGCCACAGCAGAAGCGCUCACGUCGCAGCCCCUGUCAGAUUCUGGUGAAUCUGCGAAUUCUGCUGUAUAUCCC belongs 0.09; to UAACAAGGGGCCACAGCAGAAGCGUUCACGUCGCAGCCCCUGUCAGAUCCUGGUGAAUCUGCGAAUUCUGCUGUAUAUCAC, 0.27; to UAACAAGGGGCCACAGCAGAAGCGUACACGUCGCUGCCCCUGUCAGAUUCUGGUGAAUCUGCGAACUCUGCUGUAUAUCUC, 0.39.
As to UAACAAGGGGCCACAGCAGAAGCGUUCACGUCGCAGCCCCUGCCAGAUUCUGGUGAAUCUGCGAAUUCAGCUGUAUAUCUC, the self-cleavage was 0.19.
Take UAACAAGGGGCCACAGCAGAAGCGUUCACGCCGCAGCCCCUGUCAGAUUCUGUUGAAUCUGCGAAUUCUGCAGUAUAUCUC: the self-cleavage came out at 0.06.
To UAACAAGGGGCCACAGCAGAAGCGUUCACGCCGCAGCCCCUGUCAGAUUCUGGUGAAUCAGCGAAUUCUGCUGUAUAUCCC belongs 0.06.
On to UAACAAGGGGCCACAGCAGAAGCGCUCACGCCGCAGUCCCUGUCAGAUUCUGGUGAAUCUGCGAAUACUGCUGUAUAUCUC, for which the self-cleavage was found to be 0.15.
Turning to UAACAAGGGGCCACAGCAGAAGCGUUCACGUCGCAGCCCCUGCCAGAUUCUGGUGAAUCUGCGAAUUCUGCUGUAUACCUC, the self-cleavage amounted to 0.26.
Next, UAACAAGGGGCCACAGCAGAAGCGUCCACGUCGCAGCCCCUGUCAGAUUCUGGUGAAUCUGCGAGUUCUGCUGUAUAUCUC: 0.08; UAACAAGGGGCCACAGCAGAAGCGCUCUCGUCGCAGCCCCUGUCAGGUUCUGGUGAAUCUGCGAAUUCUGCCGUAUAUCGC: 0.09; UAACAAGGGGCCACAGCAGAAGCGUUCACGCCGCAGCUCCUGUCAGAUUCUGGUGAAUCUGCGGAUUCUGCUGUAUAUCUC: 0.07.
As for UAACAAGGGGCCACAGCAGAAGCGUACACGUCGCAGCCCCUGACAGAUUCUGGUGCAUCUGCGGAUUCUGCUGUAUAUCUC, the self-cleavage was 0.07.
UAACAAGGGGCCACAGCAGAAGCGUUCACGACGCUGCCCCUGACAGAUUCUGGUGAAUCUGCGGAUUCUGCUGUAUAUCUC: the self-cleavage was determined as 0.13.
Next, UAACAAGGGGCCACAGCAGAAGCGCUCACGUCGCAGACCCUGUCAGAUUCUGGUGAAUCUGCGAAUCCUGCUGUAUAUCUC: 0.05.
To UAACAAGGGGCCACAGCAGAAGCGAUCACGUCGCAGCCCCUGUCAGAUUCUGGCGAAUCUGCGAAUUCUGCUGUACAUCUC belongs 0.06; to UAACAAGGGGCCACAGCAGAAGCGUUCACGUCGCAGCCCCAGUCAGAUUCUGGUGAAACUGGGAAUCCUGCAGUAUAUCUC, 0.14.
Turning to UAACAAGGGGCCACAGCAGAAGCGUUCACGUCGCAGCCCCCGUCAGAUUCUGGCGAAUCUGCGUAUUCUGCUGUAUAUCUC, the self-cleavage turned out to be 0.11.
To UAACAAGGGGCCACAGCAGAAGCGUUCACGCCGCAGCCCCUGUCAGAUUCUGGUGGAUCUGCGAAUUCUGCUGUAUAUCUC belongs 0.11.
Next, UAACAAGGGGCCACAGCAGAAGCGUUCACGCCGCAGCCCCUGUGAGAUUCUGGUGAAUCUGCGAAUUCUGCUGUAUAUCUC: 0.18.
To UAACAAGGGGCCACAGCAGAAGCGCUCACGUCGCAGUCCCUGUCAGAUUCUGGUGAAUCUGCGUAUCCUGCAGUAUAUCUC belongs 0.05; to UAACAAGGGGCCACAGCAGAAGCGAUCACGUCGCAGCUCCUGCCAGAUACUGGUGAAUCCGCGAAUUCUGCUGUAUAUCUC, 0.04; to UAACAAGGGGCCACAGCAGAAGCGUUCACGUCGCAGCCCCGGUCAGAUUCUGGUGAAUCUGCGAAUUCUGCUGUAUACCUC, 0.13.
With UAACAAGGGGCCACAGCAGAAGCGUACACGUCGCAGCCCCUGUCAGAUUCUGGUGGAUCUUCGAAUUCUGCUGUAUAUCUC, the self-cleavage was found to be 0.07.
With UAACAAGGGGCCACAGCAGAAGCGUUCACGUCGCAGCCCCUGCCAGAUUCUGGCGAAUCUGCGAAUUCUGCUGUAUAUCUC, the self-cleavage is 0.05.
On to UAACAAGGGGCCACAGCAGAAGCGUUCACGUCGCAGCCCCUGUCAGAUACUGGUGAAUCUGCGAAUUCUGCUGUAGAUCCC, for which the self-cleavage is 0.2.
To UAACAAGGGGCCACAGCAGAAGCGUUCACGCCGCAGCCCCAGUCAGAUUCUGGUGAAUCUGCGAAUUCUGCUGUAUAUCCC belongs 0.05; to UAACAAGGGGCCACAGCAGAAGCGUUCACGUCGCAGCCCCUGUCAGAUUCAGGUGAAUCUGUGAAUCCUGCUGUAUAUCCC, 0.05; to UAACAAGGGGCCACAGCAGAAGCGUUCACGUCGCAGCCCCUGCCAGUUUCUGGUGAAUCUGCGAAUUCUGCUGUAUAUCUC, 0.07.
On to UAACAAGGGGCCACAGCAGAAGCGCUCACGUCUCAGCCCCUGUCAGAUCCUGGCGAAUCUGCGAAUUCUGCUGUAUAUCUC, for which the self-cleavage came to 0.25.
As to UAACAAGGGGCCACAGCAGAAGCGCUCACGUCGCAGCCCCUGCCAGGCUCUGGUGAAUCUGCGAAUUCUGCUGCAUAUCUC, the self-cleavage stood at 0.27.
Regarding UAACAAGGGGCCACAGCAGAAGCGUUCACGUCGCAGCCCCUGACAGAUUCUGGUGAAUCUGCGAAUUCUGCUGUAUAUCCC, the self-cleavage came out at 0.13.
Next, UAACAAGGGGCCACAGCAGAAGCGAUCACGUCGCAGCCCCUGUCAGGUUCUGGUGAAUCUGCGGACUCUGCAGUGUAUCUC: 0.05.
Next, UAACAAGGGGCCACAGCAGAAGCGCUCACGUCGCAGCUCCUGUCAAGUUAUGGUGAAUCUGCGGAUUCUGCUGUAUAUCUC: 0.04.
In the case of UAACAAGGGGCCACAGCAGAAGCGCACACGUCGCAGCCCCUGUCAGAUUCUGGUGAAUCGGCGAAUUCUGCUGUAUAUCUC, the self-cleavage was found to be 0.3.
Next, UAACAAGGGGCCACAGCAGAAGCGCUCACGUCGCAGCCCCUGUCAGAUUCUGGUGAAUCAGCGAAUUCUGCUGUAUAUCUC: 0.26; UAACAAGGGGCCACAGCAGAAGCGCUCACGUCGCAGCCCCUGUCAGAUUCUGGUGAAUCCGCGAAUUCUGCUGUAUAUCUC: 0.35; UAACAAGGGGCCACAGCAGAAGCGUUCACGUCGCAGCCCCAGUCAGAUUCUGGUGAAUCUGCGAAUUCUGCUGUGUAUCUC: 0.2.
To UAACAAGGGGCCACAGCAGAAGCGUUCACGUCGCAGCCCCUGUCAGACUCUGGUGAAUCUGCGAAUUCCGCUGCAUAUCUC belongs 0.19.
Next, UAACAAGGGGCCACAGCAGAAGCGUUCACGUCGCAGCCCCUGUCAGAUCCUGGUGGAUCUGCUAAUUCUGCCGUAUAUCUC: 0.33; UAACAAGGGGCCACAGCAGAAGCGGUCACGUCGCAGCCCCUGUCAGAUUCUGGUGGAUCAGCGAAUUCUGCCGUAUAUCUC: 0.22; UAACAAGGGGCCACAGCAGAAGCGUUCACGUCGCAGCCCCUGUCAGAUCCUGGUGAAUCUGCGAAUUCUGCUGUAUACCUC: 0.2.
For the variant UAACAAGGGGCCACAGCAGAAGCGCUCACGUCGCAGCCCCUGUCAGAUUCUGGUGAAUCUGCGAAUUCUGCUGAAUAUCUC, the self-cleavage worked out at 0.28.
To UAACAAGGGGCCACAGCAGAAGCGCUCACGUCGCAGCCCCUGUCAGACUCUGGUGAAUCUGCGGAAUCUGCUGUAUGUCUC belongs 0.04.
Next, UAACAAGGGGCCACAGCAGAAGCGUCCACGUCGCGGCCCCUGUCAGAUUCUGGUGAAUCUGCGAAUUCUGCUGUAUAUCUC: 0.38; UAACAAGGGGCCACAGCAGAAGCGUUCACGUCGCAGCCCCUGUCAGACUCUGGUGAAUAUGCGAUUUCUGCUGUAUAUCUC: 0.15.
Regarding UAACAAGGGGCCACAGCAGAAGCGUUCACGACGCAGCCCCUGUCAGAUUCUGGUGAACCUGCGAAUUCUGCUGUAUAUCUC, the self-cleavage is 0.19.
To UAACAAGGGGCCACAGCAGAAGCGUUCACGUCGCAGCCCCUGCCAGAUUCUGGUGAAUCUGCGAAUCCUGCUGUAUAUCUC belongs 0.18; to UAACAAGGGGCCACAGCAGAAGCGUUCACGUCGCAGCCCCUGCCAGAUUCUGGUGAAUCUGCGGAUUCUGCUGUAUACCUC, 0.15.
As to UAACAAGGGGCCACAGCAGAAGCGAUCACGUCGCAGCCCCUGUCAGGUUCUGGUGAAUCUGCGAAUUCUGCUGUAUAUCUC, the self-cleavage came out at 0.07.
With UAACAAGGGGCCACAGCAGAAGCGUACACGUCGCAGCCCCUGACAGAUUCUGGUGAAUCUGCGAAUUCUGCUGUAUAUCUC, the self-cleavage turned out to be 0.23.
Next, UAACAAGGGGCCACAGCAGAAGCGCUCACGUCGCAGCCCCUGUCAGAUUCUGGUGAAUCUGCGAAUCCUGCUGUAUAUCUC: 0.05; UAACAAGGGGCCACAGCAGAAGCGUUCACGCCGCAGCCCCUGUCUGGUUCAGGUGAAUCUGCGAAUUCUGCUGUAUAUCUC: 0.13; UAACAAGGGGCCACAGCAGAAGCGCUCACGACGCAGCCCCUGUCAGAUUCUGGUGAAUCUGCGCAAUCUGCUGUAUAUCCC: 0.05.
On to UAACAAGGGGCCACAGCAGAAGCGUUCACGUCGCAGCCCCUGACGGACUCUGGUGAAACUGCGAAUCCUGCUGUAUAUCUC, for which the self-cleavage came out at 0.07.
With UAACAAGGGGCCACAGCAGAAGCGUUCACGUCGCAGCCCCUGUCAGAUUCAGGUGAAUCUGCGUUUUCCGCUGUAUAUCUC, the self-cleavage worked out at 0.22.
Take UAACAAGGGGCCACAGCAGAAGCGCUCACGUCGCGGCCCCUGUCAGAUUCUGGUUAAUCUGUGAAAUCUGCUGUAUAUCUC: the self-cleavage worked out at 0.04.
Next, UAACAAGGGGCCACAGCAGAAGCGUUCACGCCGCGACCCCGGUCAGAUUCUGGUGAAUCUGCGAAUUCUGCUGUGUAUCUC: 0.04; UAACAAGGGGCCACAGCAGAAGCGCUCACGUCGCUGCCCCUGCCAGAUUCUGGUGAAUCUGCGAGUUCUGCUGUAUAUCUC: 0.12; UAACAAGGGGCCACAGCAGAAGCGUUCACGUCGCAGCCCCUGACAGAUUCUGGUGAAUCUGCGAACUCGGCUGUAUACCUC: 0.17.
Turning to UAACAAGGGGCCACAGCAGAAGCGUUCACGUCGCAGCCCCCGUCAGAUUCUGGUGAAUCCGCGAACUCUGAUGUAUAUCUC, the self-cleavage is 0.17.
In the case of UAACAAGGGGCCACAGCAGAAGCGUUCACGUCGCAGCCCCUGUCAGAUCCUGGUGUAUCUGCGGAUUCCGCCGUAUAUCCC, the self-cleavage was 0.11.
To UAACAAGGGGCCACAGCAGAAGCGUCCACGUCGCAGCCCCUGUCAGAUUCUGGUGAAUCCGCGAACUCUGCUGUAUGUCUC belongs 0.1.
To UAACAAGGGGCCACAGCAGAAGCGUUCACGUCGCAGCCCCUGACGGAUUCUGGUGAAUCUGCGAAUUCUGCUGUAUAUCUC belongs 0.18; to UAACAAGGGGCCACAGCAGAAGCGUUCACGCCGCGGCCCCUCUCAGAUUCUGGUGAAUCUGCGAGUUCUGCUGUGUACCUC, 0.02.
As for UAACAAGGGGCCACAGCAGAAGCGUUCACGUCGCAGCCCCCGUCAGAUUAUGGUGAAUCUGCGAUUUCUGCUGUAUGUCUC, the self-cleavage was 0.14.
As to UAACAAGGGGCCACAGCAGAAGCGCUCACCUCGCAGCCCCUGUCAGAUUCAGGGGGAUCUGCGAAUUCUGCUGUAUAUCUC, the self-cleavage was determined as 0.07.
In the case of UAACAAGGGGCCACAGCAGAAGCGUUCACGUCGCAGCCCCCGUCAGAUUCUGGUGAAUCUGCGAAUUCUGCGGUAUAUCCC, the self-cleavage is 0.27.
